Results taken from publication PMC5510845.
Results are given in words; binding and its absence hold for the method and conditions named. For some assays here: Binding seen in cells or lysates may run through a third protein. Some results given as binding are weak or reduced against the parent protein; the word gives no strength. For some assays here: Sequences can lack the tags named with a protein.

By UniProt entry, the sequences of proteins in these tests, tags left out. Where a name states a change or a piece, a line headed by the entry shows the natural chain unless it says otherwise.
UniProt P06536: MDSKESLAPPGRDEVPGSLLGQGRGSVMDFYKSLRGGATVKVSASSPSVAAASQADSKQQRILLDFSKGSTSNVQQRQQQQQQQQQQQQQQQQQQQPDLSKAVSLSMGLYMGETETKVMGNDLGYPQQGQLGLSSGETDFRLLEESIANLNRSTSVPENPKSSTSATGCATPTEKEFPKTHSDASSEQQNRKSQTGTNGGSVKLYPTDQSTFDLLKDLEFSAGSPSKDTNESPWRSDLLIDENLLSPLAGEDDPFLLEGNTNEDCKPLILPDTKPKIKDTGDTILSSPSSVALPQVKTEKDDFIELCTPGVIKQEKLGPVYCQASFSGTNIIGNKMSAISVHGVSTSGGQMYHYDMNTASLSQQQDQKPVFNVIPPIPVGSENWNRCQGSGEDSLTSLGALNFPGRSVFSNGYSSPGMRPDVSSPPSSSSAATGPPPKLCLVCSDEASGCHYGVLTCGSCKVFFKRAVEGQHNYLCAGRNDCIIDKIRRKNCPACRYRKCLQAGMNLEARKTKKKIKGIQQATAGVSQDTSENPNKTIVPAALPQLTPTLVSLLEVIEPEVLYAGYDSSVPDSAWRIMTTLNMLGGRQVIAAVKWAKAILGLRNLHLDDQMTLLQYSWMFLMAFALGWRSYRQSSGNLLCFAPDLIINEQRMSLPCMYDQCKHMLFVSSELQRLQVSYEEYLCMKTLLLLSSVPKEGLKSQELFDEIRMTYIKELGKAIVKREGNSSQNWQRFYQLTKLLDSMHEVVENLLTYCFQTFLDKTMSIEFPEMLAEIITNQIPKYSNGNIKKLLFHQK
UniProt Q9P0M6: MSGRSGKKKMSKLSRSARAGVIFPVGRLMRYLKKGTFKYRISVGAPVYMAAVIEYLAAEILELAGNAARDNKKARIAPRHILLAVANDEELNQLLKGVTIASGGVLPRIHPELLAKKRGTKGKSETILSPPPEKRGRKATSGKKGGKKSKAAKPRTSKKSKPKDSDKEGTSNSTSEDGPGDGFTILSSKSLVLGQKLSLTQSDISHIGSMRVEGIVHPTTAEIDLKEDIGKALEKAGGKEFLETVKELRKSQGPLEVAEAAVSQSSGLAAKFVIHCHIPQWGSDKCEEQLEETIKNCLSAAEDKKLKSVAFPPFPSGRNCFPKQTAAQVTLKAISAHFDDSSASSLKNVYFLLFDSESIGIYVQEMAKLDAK

B1: firefly-V5-tagged JDP2 (Jun dimerization protein-2, co-IP) (protein, UniProt Q8WYK2-2 1-174)
chain: MVAGWPATPPAMMPGQIPDPSVTTGSLPGLGPLTGLPSSALTVEELKYADIRNLGAMIAPLHFLEVKLGKRPQPVKSELDEEEERRKRRREKNKVAAARCRNKKKERTEFLQRESERLELMNAELKTQIEELKQERQQLILMLNRHRPTCIVRTDSVKTPESEGNPLLEQLEKK
B2: luciferase-BATF3 fusion protein (firefly-V5-tagged BATF3, co-IP) (protein, UniProt Q9NR55 1-127)
chain: MSQGLPAAGSVLQRSVAAPGNQPQPQPQQQSPEDDDRKVRRREKNRVAAQRSRKKQTQKADKLHEEYESLEQENTMLRREIGKLTEELKHLTEALKEHEKMCPLLLCPMNFVPVPPRPDPVAGCLPR
B3: Basic Leucine Zipper ATF-Like Transcription Factor 3 (Y2H prey) (protein, UniProt Q9NR55 1-127)
chain: B2 chain

Key:
[1] = biological target: rat glucocorticoid receptor isoform GRα, full length, with AF1 mutations E219K/F220L/W234R (Y2H bait) (rat) (UniProt P06536); assay: two-hybrid; the same LexA-GR baits and preys on selective plates in the absence of hormone
[2] = biological target: rat glucocorticoid receptor isoform GRα, full length, with AF1 mutations E219K/F220L/W234R (Y2H bait) (rat) (UniProt P06536); assay: two-hybrid; LexA-GR baits against preys on selective plates with hormone (desoxycorticosterone: 0.5 or 1 μM for GRα and 0.25 or 0.5 μM for GRγ in the screens; 1 μM in Fig 1B; 300 nM in Fig 1D,E); screen and re-tests in fresh yeast cells
[3] = biological target: protein A tagged GRα (co-IP) (rat) (UniProt P06536); assay: co-IP; luciferase-based co-IP; PA-tagged GR precipitated from cleared T-Rex 293 cell extract in IgG-coated microtiter plates, 1 h at 4°C; firefly-V5-tagged partner read by luciferase activity, as fold change over protein A only; cells treated for 1 h with 1 μM dexamethasone or ethanol vehicle

Molecule	binding [1]	binding [2]	binding [3]
histone variant macroH2A2 (Y2H prey) (from UniProt Q9P0M6 1-372)	no binding (condition: without hormone)	binds	–
B1	–	–	binds
B2	–	–	binds
B3	–	no binding	–
